# This is one part of the list.
# Test system: PF3D7_0420300 AP2 domain 1 (GST-tagged)
# Experiment: gcPBM binding intensity (ln(normalized median fluorescence intensity)); higher = stronger DNA binding
# Summary of the method: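 An Agilent 4 × 180k array of primer-extended double-stranded 36-bp intergenic genomic probes, with negative controls, was incubated for 1 h with GST-tagged P. falciparum DNA-binding domains expressed in E. coli. Alexa488 anti-GST antibody detected bound protein, scanned at 488 nm. Binding intensity is the highest Masliner-normalised natural-log median intensity across replicate spots of either probe orientation.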
row,Sequence,gcPBM binding intensity (ln)
1,ATAAAATGAAATATATGTACGCATCACTTGTTGAAC [XGTACX_site4530],9.31
2,TAATTAAAAAATAAAAAAAAAAAAAATTAAAACAAA [CACACA_negctrl_site500],9.2
3,TTCTTTTTAATTTATTTTTTCTTATAACAAGAAAAC [CACACA_negctrl_site201],8.93
4,GTACATACATAAAACACACACATATATATATATATA [CACACA_site1826],9.58
5,AAAACAATAATATACTGTACATATATATAATAACAT [XGTACX_site6188],9.65
6,AAATTCAGGTTATATTTTAATTTTTTTTTGTTTTTT [CACACA_negctrl_site924],9.31
7,AATTTTTCATCAAGTTGTACAATTATTTGTTTGTTT [XGTACX_site3113],9.49
8,CATACACATACACATACACACGCATAGAAACATACG [CACACA_site8666],9.82
9,CAATATTTTTTATAGGGTACAAAAGATAAAAAAAAA [XGTACX_site6298],9.19
10,AAAAGAAAAAGAAAAACACACATAAATATAAATATA [CACACA_site1879],9.59
11,TATATTTTACTCTTCACACATATACTCAATTTATAT [CACACA_site5357],9.5
12,CATATTTGGAAACACACACACATATTTATATATATA [CACACA_site3569],9.95
13,AAAATTTTCTTTTTATGTACACATAATTTTACCGGA [XGTACX_site5276],9.18
14,AAAAATAAAAAAAATACATGCAATGAAACATTTATT [TGCATGCA_site263],9.28
15,TTACGCGCTTATTACACACACATACAAATAAGGATT [CACACA_site3486],9.76
16,AACAAAATAAAAAAAACATGCAAGAATTCTTATATG [TGCATGCA_site714],9.66
17,ATTTGTATTGTATATGCACACATAGAACACTTTTTT [CACACA_site9373],9.54
18,TTGTGTTTGAAAAAATGTACATGTGTCTTACAACAA [XGTACX_site8371],9.07
19,TTATACAGATATTTAACACACATTTTATAAAGTGCC [CACACA_site4851],9.35
20,GCCTCATCGTAGCAGTGTACGTTTTTTTTTTTTTTT [XGTACX_site8648],9.6
21,ACAATTTATATTATATGTACTTAAAAAGTTCGTAAA [XGTACX_site6421],8.94
22,TTTTATACATAAATATGTACGTATATATAATGAATT [XGTACX_site1337],9.07
23,TTCTAAAATTATATAGTGCAATTATATTAATTTTTC,9

row,Sequence,gcPBM binding intensity (ln)
1,ATAACAACCCAATGTTGTACATTTAAATATAACGTA [XGTACX_site7114],9.27
2,TATATATATTTATGTACACACACACCGATAAATAAA [CACACA_site4404],9.93
3,TATAACATATGACACACACACATACATACACAAAAA [CACACA_site6935],10.2
4,CCTTTTTTTTTTTTATGTACTAAAATAAAATTAGAA [XGTACX_site5956],8.84
5,ACCCTATCTGTAACTACACACCGCATATTGTTTACT [CACACA_site5661],10
6,ATAAATGACAGACACACACACAAAAAAAAAAAACAA [CACACA_site2626],10.2
7,AAATATTTATATGTTACACACTGTTTATAACTTTCT [CACACA_site6752],9.57
8,CTTCTGTAATTATCACGTACATATAATAATTAAAAT [XGTACX_site8973],9.11
9,TTTTTATCTTTGCTGTGTACATAAATAAAAATAACT [XGTACX_site7625],9.22
10,TTTTTTTTGATAAGTTGTACAATGATATATATCCCT [XGTACX_site3560],9.12
11,ATAGTTTAATTTATATGTACATATAATATTGATTTG [XGTACX_site7520],9.36
12,TATATTTTATATTGGTGTACAATTTTTTTTTTTTTT [XGTACX_site4291],9.2
13,AAAAGGTATGTTATACATAGATATGCACATATATGT [TGCATGCA_negctrl_site96],9.29
14,GTAGGATTTTCTTTTGTGCGCAATATAAAAAGAAAA [GTGCAC_site9514],8.85
15,ATTAATATAAAAAGGTAAATGGATGTAATATATATA [XGTACX_negctrl_site2],9.44
16,AAAATTGTTATTTTATGTACTTATATTTATTTATTT [XGTACX_site3478],9.53
17,TTTTTTTTGTGTATTTGTACATAATATATATATATA [XGTACX_site7092],9.45
18,TAATACCATTGTCATGCATGCACATTATTACTCTAA [TGCATGCA_site160],9.32
19,TCGTAATTTTTTTTTATATATTAGGAATTTATAAAA [XGTACX_negctrl_site409],8.94
20,ATATTATATTTCTTTTGTACATATTATATAATATAT [XGTACX_site7198],9.4
21,ATATATATTGTACTAGTGCATATATATACATATATT,9.27
22,ATAAATAAAAACACAAAACAAAACAAAACAAAACAA [CACACA_negctrl_site1257],9.41
23,TTTCATCTATATGAAACACACAAAGGAAAAAAAATT [CACACA_site7869],9.45

row,Sequence,gcPBM binding intensity (ln)
1,AGATTCAAAAATAAAACATGCAAAAATAAAACGTGC [TGCATGCA_site501],9.75
2,TAATAAATGGCTAGTTGTACAGAAATATAAATATTA [XGTACX_site4579],9.18
3,ATATATATAATATAATGTACATATATTTTATTTTTA [XGTACX_site3819],9.05
4,AAAGCACCCAAGAATACACACAAATATTATAAAAAA [CACACA_site111],9.66
5,ATATATTAATTTAATTGTACGAATAAAAAAAAAAAA [XGTACX_site223],9.21
6,TATATACATTTATGTACACACACATATATGTATATT [CACACA_site8971],9.7
7,ACGTATTAGATAAATACACACACAAGCATATATTTT [CACACA_site9135],9.8
8,TAATGTATTATATTTAGTACATATAAAAATAATTTT [XGTACX_site6886],8.98
9,ATATATATTTAAATGTGTACTCATTTATTTTATGTC [XGTACX_site4984],9.28
10,TATATATATAAACACACACACACATATATATATATT [CACACA_site8814],10.1
11,ATAGTATAACAGCAATGTACACATATTTGTGTATAT [XGTACX_site7899],9.49
12,TGATATTTATAATAAATATTATAATAAAATCAAACA [XGTACX_negctrl_site219],9
13,TTTTTTTTTTTTGTCACACATATATTTGTATTTATA [CACACA_site5234],9.46
14,ATATATATTTTTATTTGTACATAATTTTTTTTGTGA [XGTACX_site6378],9.21
15,ATAAAATTGTTTAAATGTACATATGAACAGTCAGTA [XGTACX_site5140],9.33
16,TTTTTTTTTTTTTGCACACACATATATAGATATATA [CACACA_site7784],9.7
17,ATATATGTAATAAATAGTACACACACACATATATAT [XGTACX_site2817],10.3
18,TTTTTTTTTTTTTTTTGTACGTAATATATGATTAAT [XGTACX_site6876],8.96
19,CATTTTATCAAAAGTGGTACAACCCTTTCAAAAAAT [XGTACX_site341],8.86
20,AAATTACTTTCACAGTGTACTTGGAAAAAAAAAAGA [XGTACX_site1046],9.18
21,AGATATAATAAATATACACACATATATATATATATA [CACACA_site962],9.31
22,TAATTTTATATATGCACACAAAATATGTTCATATAA [CACACA_site4076],9.13
23,TGAAAAATGTTGATGTGTACTTATATAGTGTGTTAA [XGTACX_site2100],9.49

row,Sequence,gcPBM binding intensity (ln)
1,TTTAACATAAATTAAACACACAATATAATACATTAA [CACACA_site1237],9.51
2,TTTTTTTTTAAATAATGTACTTTTCATTATTTAGAT [XGTACX_site1706],9.04
3,TTTTTATTTATTAATACACACACACCCACCCACAAA [CACACA_site7965],10.1
4,AAAGAAAAAAATAATTGTACATTTATATTTAATTTA [XGTACX_site8003],8.98
5,AAAAAAAATTAATAGGGTACATGAAAAGTGGAATAT [XGTACX_site618],9.9
6,CACATACACATACAAACACACATTAGATATAAATAT [CACACA_site6854],9.66
7,ATAGAAGAAATATGCACACATACATTGAAATGTTTT [CACACA_site321],9.36
8,TGAACACGCACAAATACACACAAAAAAAATAAATAA [CACACA_site6257],9.63
9,CCATTAAGACACATTGCACACGTGCACCCATAGAAA [CACACA_site4388],9.22
10,AAAAAAAAATTAAAAACACACATATAAATAAATATA [CACACA_site6845],9.52
11,AACAAAATAGGGAACACACACATGTCAATATATAAA [CACACA_site2596],9.93
12,GTTTATTTATTATAATGTACATTAGTCTGAGGAGTT [XGTACX_site4035],9.3
13,TTTTATTTATATATAGTGCATATTATTATAAAACAA,8.9
14,CTTTTTTTCCATTAAGCATGCACATTCATATTTACT [TGCATGCA_site170],9.46
15,ATATATATATATATATGTACATATGTTAATCTGCAT [XGTACX_site1068],9.22
16,TATATATATATAGGTTGTACATTTTGATGTTTACGT [XGTACX_site5503],9.42
17,TACTTTTTTTTTTTTTTTTTTTTTTTTTCCCTTTTT [CACACA_negctrl_site761],9.13
18,TATATTTCTTATTTCTTATTTTGTCATCACCTTTTT [CACACA_negctrl_site1115],9.43
19,TTACATAATATATGTACACACGCAAATACTTATAAT [CACACA_site7995],9.49
20,TATAAATATGTTCTTACACACACGAATATAAATATG [CACACA_site7537],9.73

# — the supplement of paper PMC11417369
